Measurements as given in the supplement of paper PMC3334620.
Over roughly 33,000 sequences, “E-score (-0.5 to 0.5)” has its median near -0.043; the highest 2% begin near 0.37. The list shows a part of the results.

These sequences were tested against T1, Upc2 (UniProt Q12151) (assay: PBM E-score (8-mer binding enrichment) (E-score (-0.5 to 0.5)); higher = stronger / more preferred TF binding; most listed sequences are background and not binding sites). Conditions: protein concentration: 200 nM; construct: GST-full length.
T1 sequence: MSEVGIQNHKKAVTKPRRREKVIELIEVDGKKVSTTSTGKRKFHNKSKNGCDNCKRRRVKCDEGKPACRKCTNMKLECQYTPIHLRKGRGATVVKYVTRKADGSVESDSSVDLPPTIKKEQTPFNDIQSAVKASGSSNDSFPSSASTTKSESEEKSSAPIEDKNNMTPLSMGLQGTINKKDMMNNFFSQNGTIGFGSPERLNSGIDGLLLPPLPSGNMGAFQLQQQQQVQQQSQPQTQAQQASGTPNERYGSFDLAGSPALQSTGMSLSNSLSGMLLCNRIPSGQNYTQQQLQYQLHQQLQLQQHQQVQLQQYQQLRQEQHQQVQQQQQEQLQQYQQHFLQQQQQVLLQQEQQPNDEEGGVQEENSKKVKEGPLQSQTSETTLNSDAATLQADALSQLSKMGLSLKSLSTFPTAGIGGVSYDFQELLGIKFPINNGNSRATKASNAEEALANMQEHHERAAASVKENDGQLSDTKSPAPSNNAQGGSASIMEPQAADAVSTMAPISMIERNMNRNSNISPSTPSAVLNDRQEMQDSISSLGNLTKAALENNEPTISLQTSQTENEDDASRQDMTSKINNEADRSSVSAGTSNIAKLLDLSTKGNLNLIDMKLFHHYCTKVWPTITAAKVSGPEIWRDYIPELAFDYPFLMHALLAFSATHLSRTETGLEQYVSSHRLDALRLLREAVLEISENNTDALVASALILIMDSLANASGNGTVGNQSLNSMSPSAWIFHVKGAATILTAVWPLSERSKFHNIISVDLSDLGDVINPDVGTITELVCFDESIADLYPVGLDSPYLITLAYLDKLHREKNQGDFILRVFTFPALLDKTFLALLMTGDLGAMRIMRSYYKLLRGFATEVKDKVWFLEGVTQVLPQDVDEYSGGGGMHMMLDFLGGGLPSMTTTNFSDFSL
Summary of the method: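 The E-score, a modified Wilcoxon-Mann-Whitney statistic, was computed by the Universal PBM Analysis Suite for every ungapped eight-base word pooled with its reverse complement. Scans behind it were normalised with masliner after bound GST-tagged yeast transcription factors were detected with fluorescent anti-GST. The proteins, at about 100-200 nM, had been applied to universal all-10-mer Agilent arrays made double-stranded by primer extension.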

Sequence | PBM E-score
ACCGATCT | -0.0555
ATACAAAT | 0.117
ATGATATA | -0.00615
CTACTCCC | -0.242
AGGTGTAT | -0.0191
ATAGCACA | -9e-05
ACGGTTAC | 0.313
CGTAAACG | 0.473
CTTGGGAC | -0.167
CCGCAATC | -0.0127
AGAGTCTC | -0.0957
CCTTAACA | -0.0468
AGGGGATA | -0.201
ATTTAGTG | 0.0656
ATACGAAG | 0.476
AAATAAAC | 0.284
CCGACAGC | -0.0399
ACCGTTTC | 0.244
CTACCGTA | 0.301
AAGTCTGT | 0.0265
GACCGCCC | 0.0325
CGGGTTGC | 0.0793
GCCAACGC | -0.0104
GATCAATC | -0.104
AAACAGGA | -0.139

Sequence | PBM E-score
CAGCGCTG | 0.0325
CCGTAGGA | -0.0176
CCCTTTAG | -0.289
CTACTAGA | -0.0432
AAGACGAA | 0.0751
ATCTCTCC | -0.00648
TAATGCAA | -0.139
CAAATATG | -0.0879
CTAACCAG | -0.132
GCAAACCC | -0.0188
GTAAGGGA | -0.024
AAACGGGT | 0.344
CTTAATCA | -0.0553
AACGTTGC | 0.111
AGCAGCGA | -0.113
ACGACATA | 0.261
CTAGGACA | -0.258
ACAATACT | -0.00657
AAGCTTCA | -0.0468
CCTATAGG | -0.323
CACCGCCC | 0.0439
CTTGCTGA | -0.25
CGCGAGTC | 0.186
CGAGTGTA | 0.25
ACACGGAT | 0.106

Sequence | PBM E-score
GCATTTGA | 0.0934
AGTTCCGA | 0.11
ACTTCGTC | 0.0529
ACGGGGTA | 0.226
CCGACTTC | -0.124
TGCATAAA | -0.00425
GGTTGTCA | -0.164
AGGACCTC | -0.0396
AAGACTCT | 0.0285
GAAACGTA | 0.21
CCGAGGAC | 0.234
GAACAGCA | -0.0354
ACAGTCGT | 0.291
GTGGCGAA | -0.0326
ATGACAAC | -0.0226
GCTCAACA | -0.175
AAGCGACT | 0.243
AAAATTCC | -0.119
CACGAAGC | 0.017
ACTTGCCT | -0.174
GTTTCCCA | -0.101
GATGCGAC | 0.144
CGCGGCAC | 0.0106
CCGCTCAC | -0.104
ATCCTGCC | -0.0336

Sequence | PBM E-score
ACGTTGGG | -0.0649
GCTTACAC | 0.0568
GGAACAAC | -0.108
TCAGGAGA | -0.229
CCGTAACG | 0.34
GAGGGAAC | -0.0277
GAGGTAAA | 0.152
ACGGTATA | 0.274
GGAGAGCC | -0.0506
AACGTGTC | 0.0562
GTGCGGCA | -0.123
ACAATAGC | -0.171
CCGTCTGA | -0.107
CCGTTTGA | 0.331
ACTTAAGA | -0.0366
CTAGCCCA | -0.335
AGTTCAGA | -0.0704
CGCTCACA | 0.151
AGGACCTG | -0.116
ATCAGCTA | -0.0378
AGGATGTC | -0.0722
GAAACATA | 0.254
CGATGACA | 0.0742
CTGGCGGA | -0.22
GCGCACTA | -0.00558

Sequence | PBM E-score
GCGCGCCC | -0.218
AAGTGAAA | -0.145
CTACAACA | -0.0131
ACTATTGC | -0.0704
ATAGACGA | 0.186
CCATGAAG | 0.0165
AGGAGATA | -0.256
GGGCCGTA | 0.344
ACGCGGAG | 0.0342
CGGTCCCC | -0.102
GACCAGAC | -0.00063
ATAGCAGG | -0.183
AACTCAGG | -0.0663
CGCTGTAG | -0.165
CGTCTTAG | -0.206
CGCCTTGC | -0.288
TGACGTAA | 0.0846
AGGATTTG | -0.0759
CTCGTCAG | -0.0441
CCGCTCTC | -0.191
ACATGCCA | 0.0357
AATAATTC | 0.107
ATCCCTGC | -0.217
ACCCAGAA | -0.117
AAATTAGG | 0.0314

Sequence | PBM E-score
AGGACTAC | -0.157
ATTTAGGA | 0.0165
AAGAGTCC | -0.244
CAGGCACC | -0.09
GCCTCTGA | -0.2
ATAATGAA | 0.125
AGGAAGGA | -0.249
AACCCTTA | 0.113
TACAGCAA | 0.138
CGGGTTCC | 0.00463
AACTGAAC | 0.129
CCAGCTGA | -0.225
CATAAAAC | -0.118
GGGGGAGA | -0.34
ATTCGACA | 0.00037
AGCCGCGG | 0.119
AGGACGGC | -0.191
GCTAGGCA | -0.285
ACACCTTC | -0.0349
CCGCCTGC | -0.119
CCACTCAA | 0.122
ATATGACA | 0.026
CTACCACA | -0.234
CATGGCGA | -0.234
ATGTTGGG | -0.248

Sequence | PBM E-score
AGTGGCTC | 0.0705
CATCTGTA | 0.0377
AAGAACTA | -0.0199
AGGTACAG | -0.177
CACCAACA | -0.187
GATATTGA | -0.146
TCGAGTCA | -0.148
TAGAAACA | 0.0409
GAATTTAA | 0.0875
GTCGCCAA | -0.0108
TCACAACA | 0.065
ATCGCAGC | 0.085
GCTGTAAA | 0.0282
ATACACAA | 0.212
AAACGGGG | 0.398
CCGGCAGC | -0.365
AGGCTCCG | 0.00672
CTACGCAG | -0.141
CGTCTGGC | -0.0643
AGGGGACT | -0.268
GTGCGCAA | -0.032
ACCTTTGG | -0.258
